These results are taken from the supplement of paper PMC10369915.

The other results are listed elsewhere or left out. Cut-off read from the data, not from the text of the source: active = 3.2 or more and inactive = the rest. Only a few entries rise above the background.
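Note: displayed peptides selected on beads carrying the immobilized SH2 domain, with library peptides lacking any tyrosine serving as negative controls.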

In one test the target is SHP2 C-SH2 domain E139D. Description: enrichment score (SH2-bound / input frequency) (ratio); bacterial display of known human phosphotyrosine sites (pTyr-Var adds point mutants) read by sequencing; higher = stronger binding; tyrosines were phosphorylated by kinases first. The settings on record: peptide library: pTyr-Var.
For LAETSYVKVLE [MAGEA1_Y276], the enrichment score is inactive: 1.05.
Regarding IFQASYFRRGD [LTK_Y676_R673Q_YF], the enrichment score is inactive: 0.315.
On the same count and under the same terms, as for DAHFTYSRYPW [LY75_Y888_D884A], the figure is inactive: 0.887; as for IFRASYFRRGD [LTK_Y676_YF], inactive: 0.272.
Turning to YTGDIYSSSNL [LZTR1_Y141_N143S], the enrichment score was inactive: 0.813.
On the same count and under the same terms, the result for FGTAQYCCRMG [LRRK2_Y2023_I2020T_YF] reads inactive: 1.28; that for PPAPRYHHLAV [LZTR1_Y119_S122L], inactive: 2.57; that for VAMDDYLKNVM [LRRK2_Y707], inactive: 0.781.
Still for that read-out and setting: as for FTGDIYSNSNL [LZTR1_Y141_YF], the figure is inactive: 0.533.
Still for that read-out and setting: as for WGLRSYYETSK [MAGED2_Y448], the figure is inactive: 1.13; as for LQFKNYQQLFD [MAN2A1_Y442], inactive: 0.709; as for WGLCSYYETSK [MAGED2_Y448_R446C], inactive: 1.28.
Take LAETSYVTVLE [MAGEA1_Y276_K278T]: the enrichment score is inactive: 0.962.
Still for that read-out and setting: the result for HFEFKYVINAI [MAOA_Y268_C266F_YF] reads inactive: 1.19; that for GENTMYAQVFN [LY9_Y603], inactive: 1.7.
On the same count and under the same terms, the result for FTGDIYSSSNL [LZTR1_Y141_N143S_YF] reads inactive: 0.803; that for KLLRLYAVVTR [LYN_Y306_V303L], inactive: 0.645; that for REHTVYGEPRK [MAGEA4_Y240], inactive: 0.735.
Take DDHFTYSRFPW [LY75_Y888_YF]: the enrichment score is inactive: 0.938.

The target in a further test is SHP2 C-SH2 domain wild-type. The test is described as above. The settings on record: peptide library: pTyr-Var.
Take LAETSYVKVLE [MAGEA1_Y276]: the enrichment score is inactive: 3.16.
On to IFQASYFRRGD [LTK_Y676_R673Q_YF], for which the enrichment score was inactive: 0.316.
Still for that read-out and setting: the result for DAHFTYSRYPW [LY75_Y888_D884A] reads inactive: 0.857.
On the same count and under the same terms, the result for IFRASYFRRGD [LTK_Y676_YF] reads inactive: 0.243; that for YTGDIYSSSNL [LZTR1_Y141_N143S], inactive: 0.881.
For the molecule FGTAQYCCRMG [LRRK2_Y2023_I2020T_YF], the enrichment score was inactive: 1.08.
The same measure, in the same setting: the result for PPAPRYHHLAV [LZTR1_Y119_S122L] reads inactive: 2.07; that for VAMDDYLKNVM [LRRK2_Y707], inactive: 0.807.
With FTGDIYSNSNL [LZTR1_Y141_YF], the enrichment score was inactive: 0.549.
On the same count and under the same terms, the result for WGLRSYYETSK [MAGED2_Y448] reads inactive: 1.1.
Still for that read-out and setting: the result for LQFKNYQQLFD [MAN2A1_Y442] reads inactive: 0.588; that for WGLCSYYETSK [MAGED2_Y448_R446C], inactive: 1.96; that for LAETSYVTVLE [MAGEA1_Y276_K278T], inactive: 2.6.
Same read-out and setting: the result for HFEFKYVINAI [MAOA_Y268_C266F_YF] reads inactive: 1.81; that for GENTMYAQVFN [LY9_Y603], inactive: 2.77.
For FTGDIYSSSNL [LZTR1_Y141_N143S_YF], the enrichment score was inactive: 0.673.
Same read-out and setting: the result for KLLRLYAVVTR [LYN_Y306_V303L] reads inactive: 1.49.
As to REHTVYGEPRK [MAGEA4_Y240], the enrichment score was inactive: 0.781.
As to DDHFTYSRFPW [LY75_Y888_YF], the enrichment score is inactive: 0.802.

The target of the next test is SHP2 N-SH2 domain L43F. The description is as above. As to conditions: peptide library: pTyr-Var.
For the molecule LAETSYVKVLE [MAGEA1_Y276], the enrichment score was inactive: 0.762.
Still for that read-out and setting: as for IFQASYFRRGD [LTK_Y676_R673Q_YF], the figure is inactive: 0.403; as for DAHFTYSRYPW [LY75_Y888_D884A], inactive: 1.07; as for IFRASYFRRGD [LTK_Y676_YF], inactive: 0.261.
The same measure, in the same setting: as for YTGDIYSSSNL [LZTR1_Y141_N143S], the figure is inactive: 0.674; as for FGTAQYCCRMG [LRRK2_Y2023_I2020T_YF], inactive: 0.97.
For the molecule PPAPRYHHLAV [LZTR1_Y119_S122L], the enrichment score was inactive: 3.16.
The same measure, in the same setting: as for VAMDDYLKNVM [LRRK2_Y707], the figure is inactive: 0.98; as for FTGDIYSNSNL [LZTR1_Y141_YF], inactive: 0.574; as for WGLRSYYETSK [MAGED2_Y448], inactive: 1.61.
Still for that read-out and setting: the result for LQFKNYQQLFD [MAN2A1_Y442] reads inactive: 0.883; that for WGLCSYYETSK [MAGED2_Y448_R446C], inactive: 1.22; that for LAETSYVTVLE [MAGEA1_Y276_K278T], inactive: 0.757.
The same measure, in the same setting: the result for HFEFKYVINAI [MAOA_Y268_C266F_YF] reads inactive: 2.05.
On to GENTMYAQVFN [LY9_Y603], for which the enrichment score is inactive: 0.929.
As to FTGDIYSSSNL [LZTR1_Y141_N143S_YF], the enrichment score is inactive: 0.746.
The same measure, in the same setting: the result for KLLRLYAVVTR [LYN_Y306_V303L] reads inactive: 0.603; that for REHTVYGEPRK [MAGEA4_Y240], inactive: 0.551; that for DDHFTYSRFPW [LY75_Y888_YF], inactive: 0.95.

The next test deals with SHP2 N-SH2 domain T42A. The description is as above. The settings on record: peptide library: pTyr-Var.
Consider LAETSYVKVLE [MAGEA1_Y276], for which the enrichment score was inactive: 2.01.
On the same count and under the same terms, as for IFQASYFRRGD [LTK_Y676_R673Q_YF], the figure is inactive: 0.355.
Same read-out and setting: as for DAHFTYSRYPW [LY75_Y888_D884A], the figure is inactive: 0.742.
Still for that read-out and setting: as for IFRASYFRRGD [LTK_Y676_YF], the figure is inactive: 0.307; as for YTGDIYSSSNL [LZTR1_Y141_N143S], inactive: 0.83; as for FGTAQYCCRMG [LRRK2_Y2023_I2020T_YF], inactive: 0.995.
As for PPAPRYHHLAV [LZTR1_Y119_S122L], the enrichment score was inactive: 1.9.
The same measure, in the same setting: the result for VAMDDYLKNVM [LRRK2_Y707] reads inactive: 0.79; that for FTGDIYSNSNL [LZTR1_Y141_YF], inactive: 0.664; that for WGLRSYYETSK [MAGED2_Y448], inactive: 1.09.
On the same count and under the same terms, the result for LQFKNYQQLFD [MAN2A1_Y442] reads inactive: 0.899; that for WGLCSYYETSK [MAGED2_Y448_R446C], inactive: 1.31.
Same read-out and setting: the result for LAETSYVTVLE [MAGEA1_Y276_K278T] reads inactive: 1.96; that for HFEFKYVINAI [MAOA_Y268_C266F_YF], inactive: 1.7.
For the molecule GENTMYAQVFN [LY9_Y603], the enrichment score is inactive: 2.52.
Still for that read-out and setting: as for FTGDIYSSSNL [LZTR1_Y141_N143S_YF], the figure is inactive: 0.739.
For KLLRLYAVVTR [LYN_Y306_V303L], the enrichment score was inactive: 0.703.
On the same count and under the same terms, as for REHTVYGEPRK [MAGEA4_Y240], the figure is inactive: 0.673.
For the molecule DDHFTYSRFPW [LY75_Y888_YF], the enrichment score was inactive: 0.791.

Another test has as its target SHP2 N-SH2 domain T52S. The test is described as above. As to conditions: peptide library: pTyr-Var.
Turning to LAETSYVKVLE [MAGEA1_Y276], the enrichment score was inactive: 0.871.
Still for that read-out and setting: as for IFQASYFRRGD [LTK_Y676_R673Q_YF], the figure is inactive: 0.25; as for DAHFTYSRYPW [LY75_Y888_D884A], inactive: 0.881; as for IFRASYFRRGD [LTK_Y676_YF], inactive: 0.242.
On the same count and under the same terms, as for YTGDIYSSSNL [LZTR1_Y141_N143S], the figure is inactive: 0.8; as for FGTAQYCCRMG [LRRK2_Y2023_I2020T_YF], inactive: 0.993; as for PPAPRYHHLAV [LZTR1_Y119_S122L], inactive: 2.56.
The same measure, in the same setting: the result for VAMDDYLKNVM [LRRK2_Y707] reads inactive: 0.821.
FTGDIYSNSNL [LZTR1_Y141_YF]: the enrichment score was inactive: 0.746.
Consider WGLRSYYETSK [MAGED2_Y448], for which the enrichment score was inactive: 1.49.
On the same count and under the same terms, as for LQFKNYQQLFD [MAN2A1_Y442], the figure is inactive: 0.763.
Still for that read-out and setting: the result for WGLCSYYETSK [MAGED2_Y448_R446C] reads inactive: 0.845.
Still for that read-out and setting: as for LAETSYVTVLE [MAGEA1_Y276_K278T], the figure is inactive: 1.26; as for HFEFKYVINAI [MAOA_Y268_C266F_YF], inactive: 1.26.
Turning to GENTMYAQVFN [LY9_Y603], the enrichment score was inactive: 1.11.
On the same count and under the same terms, the result for FTGDIYSSSNL [LZTR1_Y141_N143S_YF] reads inactive: 0.839; that for KLLRLYAVVTR [LYN_Y306_V303L], inactive: 0.742.
As to REHTVYGEPRK [MAGEA4_Y240], the enrichment score is inactive: 0.585.
The same measure, in the same setting: the result for DDHFTYSRFPW [LY75_Y888_YF] reads inactive: 0.835.

Another test deals with SHP2 N-SH2 domain wild-type. The description is as above. The settings on record: peptide library: pTyr-Var.
Regarding LAETSYVKVLE [MAGEA1_Y276], the enrichment score is inactive: 0.97.
On the same count and under the same terms, the result for IFQASYFRRGD [LTK_Y676_R673Q_YF] reads inactive: 0.391; that for DAHFTYSRYPW [LY75_Y888_D884A], inactive: 0.857.
As for IFRASYFRRGD [LTK_Y676_YF], the enrichment score is inactive: 0.207.
On the same count and under the same terms, as for YTGDIYSSSNL [LZTR1_Y141_N143S], the figure is inactive: 0.859; as for FGTAQYCCRMG [LRRK2_Y2023_I2020T_YF], inactive: 0.84; as for PPAPRYHHLAV [LZTR1_Y119_S122L], inactive: 2.76.
Still for that read-out and setting: the result for VAMDDYLKNVM [LRRK2_Y707] reads inactive: 0.895; that for FTGDIYSNSNL [LZTR1_Y141_YF], inactive: 0.73; that for WGLRSYYETSK [MAGED2_Y448], inactive: 1.21.
The same measure, in the same setting: the result for LQFKNYQQLFD [MAN2A1_Y442] reads inactive: 0.911.
WGLCSYYETSK [MAGED2_Y448_R446C]: the enrichment score is inactive: 1.56.
Still for that read-out and setting: as for LAETSYVTVLE [MAGEA1_Y276_K278T], the figure is inactive: 1.07; as for HFEFKYVINAI [MAOA_Y268_C266F_YF], inactive: 1.7.
In the case of GENTMYAQVFN [LY9_Y603], the enrichment score was inactive: 0.643.
FTGDIYSSSNL [LZTR1_Y141_N143S_YF]: the enrichment score was inactive: 0.927.
Still for that read-out and setting: as for KLLRLYAVVTR [LYN_Y306_V303L], the figure is inactive: 0.964; as for REHTVYGEPRK [MAGEA4_Y240], inactive: 0.831.
Consider DDHFTYSRFPW [LY75_Y888_YF], for which the enrichment score was inactive: 0.828.
